Test results as given in PubChem BioAssay AID360 (National Center for Advancing Translational Sciences (NCATS), 2006).
In all, about 48,000 compounds went through this assay and about 550 (1.1%) were called active. Inconclusive results (about 4%) are left out. No stated cut-off is given here; in the data, active means potency below about 15 µM; inconclusive means mostly about 16 µM to 33 µM; inactive means weaker than that. Some of the results follow.

Target: Lysosomal acid glucosylceramidase (Homo sapiens) (UniProt P04062)
Experiment: Glucocerebrosidase;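 further: the screen sought inhibitors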
Details: purified enzyme, resorufin glucoside fluorescence (screen aimed at inhibitors), 20 min
Procedure, shortened: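 Compounds titrated against 0.2 nM normal enzyme, 30 uM resorufin beta-D-glucopyranoside substrate, citrate/phosphate buffer with taurocholate and tween-20, pH 5.9. Reaction ran 20 min at room temperature; fluorescence (Ex 548/Em 600) gave AC50.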
Potency means the concentration at half of the fitted maximal effect.

UniProt P04062, sequence (P04062 whole entry, looked up): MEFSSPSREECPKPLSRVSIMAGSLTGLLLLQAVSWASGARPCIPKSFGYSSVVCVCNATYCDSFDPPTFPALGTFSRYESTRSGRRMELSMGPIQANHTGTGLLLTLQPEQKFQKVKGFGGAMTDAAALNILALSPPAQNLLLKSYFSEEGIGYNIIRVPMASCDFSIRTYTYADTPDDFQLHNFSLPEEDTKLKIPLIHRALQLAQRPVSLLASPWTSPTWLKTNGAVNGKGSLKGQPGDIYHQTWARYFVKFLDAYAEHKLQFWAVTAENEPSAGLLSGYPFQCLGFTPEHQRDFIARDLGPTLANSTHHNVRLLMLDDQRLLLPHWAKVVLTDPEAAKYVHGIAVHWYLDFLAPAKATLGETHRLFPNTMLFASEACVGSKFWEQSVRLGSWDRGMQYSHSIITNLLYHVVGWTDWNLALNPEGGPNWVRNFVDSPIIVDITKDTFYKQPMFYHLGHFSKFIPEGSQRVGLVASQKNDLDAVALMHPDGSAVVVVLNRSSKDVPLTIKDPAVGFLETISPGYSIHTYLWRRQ

Potency, inactive:
Cc1cccc(-n2c(N)cc(=O)nc2SCC(=O)NC2CCCCC2)c1 > 76.9 µM, O=C(O)C1C2C=CC(O2)C1C(=O)Nc1ccc(S(=O)(=O)Nc2ccccc2)cc1 (stereo not drawn) > 76.9 µM, Cc1cccc(Cn2c(=O)c3c(nc4n3CCCN4Cc3ccccc3)n(C)c2=O)c1 > 76.9 µM, COCCNC(=O)C1CC(c2cccc(OC)c2)=NO1 (stereo not drawn) > 76.9 µM, O=C(CC(c1ccc(F)cc1)c1ccco1)N1CCOCC1 (stereo not drawn) > 76.9 µM, O=P(COCCO)(c1ccccc1)c1ccccc1 > 76.9 µM, Cc1nnc(SCc2cnc(-c3ccc(C(C)C)cc3)s2)n1C > 76.9 µM, O=C(NCc1ccccc1)c1cc(-c2cccs2)on1 > 76.9 µM, CC1CCC(NC(=O)Cn2c(=O)[nH]c3ccsc3c2=O)CC1 (stereo not drawn) > 76.9 µM, Cc1c(C(=O)OCCN2CCCCC2)oc2ccccc12 > 76.9 µM, COc1ccc(OCc2ccc(-c3nc4ccccc4c(=O)n3N)o2)cc1 > 76.9 µM, Cc1cc(C(=O)N2CCN(c3ncccn3)CC2)c(C)o1 > 76.9 µM, Cc1ccc(S(=O)(=O)C(C#N)c2nc3ccccc3nc2N2CCC(C)CC2)cc1 (stereo not drawn) > 76.9 µM, O=S(=O)(c1ccc(Br)s1)N1CCCCC1 > 76.9 µM, O=C(O)c1cc(-c2ccccn2)n[nH]1 > 76.9 µM, O=C1CC(C(=O)Nc2ccc(O)c(C(=O)O)c2)C(c2ccccc2)O1 (stereo not drawn) > 76.9 µM, Cc1cc(C)n(-c2ccc(C(=O)OCC(=O)NCc3ccco3)cc2)n1 > 76.9 µM, C=CCn1c(SCc2cc(=O)n3ccsc3n2)nc2sc(C)c(C)c2c1=O > 76.9 µM, Cc1ccc2nsnc2c1S(=O)(=O)NCc1ccncc1 > 76.9 µM, COc1ccc(-c2ccc(Nc3ccc(S(=O)(=O)N4CCCC4)cc3)nn2)cc1OC > 76.9 µM, CC(=O)OC1CC2(C)C(=O)CCC2C2CCc3cc(O)ccc3C12 (stereo not drawn) > 76.9 µM, COc1cc(C(=O)NCCC(=O)NCc2ccc3c(c2)OCO3)cc(OC)c1OC > 76.9 µM, Cc1cccc(C(=O)OCc2cc3ccccc3[nH]c2=O)c1 > 76.9 µM, Cc1nnc(SCCn2c(N3CCCCC3)nc3c2c(=O)n(C)c(=O)n3C)s1 > 76.9 µM, COc1ccc2[nH]c(C(=O)O)c(NS(=O)(=O)c3ccc(Cl)s3)c2c1 > 76.9 µM, Cc1cccc(OCc2nnc3n2CCCCC3)c1 > 76.9 µM, O=c1c2c3c(sc2n2cnnc2n1-c1ccccc1)N(Cc1ccccc1)CCC3 > 76.9 µM, O=C(O)c1ccc(NS(=O)(=O)c2cc(Cl)ccc2Cl)cc1O > 76.9 µM, CCOC(=O)c1ccc(NS(=O)(=O)c2cnc[nH]2)cc1 > 76.9 µM, CCCc1cc(C(N)=O)c(NC(=O)C2CCCO2)s1 (stereo not drawn) > 76.9 µM, Clc1cccc2sc(N3CCCC3)nc12 > 76.9 µM, c1ccc(SCc2nc(-c3ccccn3)no2)cc1 > 76.9 µM, CC1CCN(C(=O)C(NS(=O)(=O)c2cccc3nsnc23)c2ccccc2)CC1 (stereo not drawn) > 76.9 µM, O=c1ccc2cc(S(=O)(=O)N3CCOCC3)ccc2o1 > 76.9 µM, Cc1cccc(-c2c3c(=O)n(C)c(=O)n(C)c3cn2CCO)c1 > 76.9 µM, O=C(CS(=O)(=O)c1ccccc1)N1CCCCCC1 > 76.9 µM, Cn1c(=O)c2c(nc(Br)n2CCc2ccccc2)n(C)c1=O > 76.9 µM, CN1CCN(CC#CCn2c3ccccc3c3ccccc32)CC1, CCOC(=O)C1CCN(C(=O)c2ccc(Br)o2)CC1 > 76.9 µM, Cc1cccc2cc(CN(CC3CCCO3)C(=O)c3cnccn3)c(=O)[nH]c12 (stereo not drawn) > 76.9 µM, C=CCn1c(SCC(=O)NC(=O)NCc2ccco2)nc2sc(C)c(C)c2c1=O > 76.9 µM, CC(C)NC(=O)CSc1nc2ccccc2n1CC(=O)N1CCc2ccccc21 > 76.9 µM, Cc1ccccc1CS(=O)(=O)Cc1ccc(C(=O)NCCCN2CCOCC2)o1 > 76.9 µM, Cc1occc1-c1nnc(SCC(=O)Nc2ccccc2)n1CCc1ccccc1, COc1ccc2ncn(-c3ccccc3)c2c1 > 76.9 µM, CCOC(=O)c1[nH]c(C)c(C(=O)NCC2CCCO2)c1C (stereo not drawn) > 76.9 µM, CCn1cc(C(=O)OCC(=O)NCc2ccc3c(c2)OCO3)c(=O)c2ccc(C)nc21 > 76.9 µM, Cc1ccc(-c2nnn(CC(=O)N(c3cccc(F)c3)C(C(=O)NC3CCCC3)c3ccco3)n2)o1 (stereo not drawn) > 76.9 µM, CC(C)(CNCC(O)c1ccccc1)N1CCOCC1 (stereo not drawn) > 76.9 µM, c1ccc(-c2nnc(-c3cccc(-c4nnc(-c5ccccc5)o4)c3)o2)cc1 > 76.9 µM, CCC(C)(C)n1nnnc1C(c1ccccc1F)N1CCC(C(N)=O)CC1 (stereo not drawn) > 76.9 µM, CC1CN(C(=O)c2ccc3c(c2)OCO3)OC(c2ccccc2)O1 (stereo not drawn) > 76.9 µM, COC(=O)c1ccc(CSc2nncn2C)cc1 > 76.9 µM, Nc1nonc1-c1noc(-c2ccccc2Br)n1 > 76.9 µM, COC(=O)c1ccc(Cn2cnc3c(cnn3-c3ccc(Cl)cc3)c2=O)o1 > 76.9 µM, O=C(CSc1nc2ccsc2c(=O)n1NC(=O)c1ccccc1)Nc1nccs1 > 76.9 µM, Cc1cccc(C)c1NC(=O)CC(NCc1ccco1)C(=O)O (stereo not drawn) > 76.9 µM, CC(c1ccccc1)n1c(-c2ccncc2)n[nH]c1=S (stereo not drawn) > 76.9 µM, Cn1c(=O)[nH]c2cc3ccccc3cc21 > 76.9 µM, CCOC(=O)c1coc(CNC(=O)c2c(C)oc3c2CCCC3)c1 > 76.9 µM, COc1cccc(NC(=O)c2ocnc2C)c1 > 76.9 µM, CC(C)CNS(=O)(=O)c1ccc(CCC(=O)N2CCN(Cc3ccc4c(c3)OCO4)CC2)cc1 > 76.9 µM, O=C(c1ccc(N2CCOCC2)cc1)c1cccs1 > 76.9 µM, O=C(Nc1ccc(-c2noc(COc3ccccc3Cl)n2)cc1)c1ccco1 > 76.9 µM, COc1ccc(-n2cnnc2SCc2ncc(-c3ccccc3)o2)cc1 > 76.9 µM, COC(=O)c1ccc(CSc2nc(-c3ccco3)cc(C(F)(F)F)n2)o1 > 76.9 µM, Nc1nc(-c2c[nH]c3ccccc23)cs1, Cc1cc(C)c2c(c1)NC(=O)C2(O)CC(=O)c1cccs1 (stereo not drawn) > 76.9 µM, CCOc1ccccc1N(CC(=O)O)S(=O)(=O)c1ccccc1 > 76.9 µM, CN(C)C(=O)COc1ccc2cc(-c3ccccc3)c(=O)oc2c1 > 76.9 µM, CN(C(=O)c1ccno1)c1nnc(-c2ccccn2)s1 > 76.9 µM, O=C(OCc1cccc2ccccc12)c1ccc2c(=O)[nH]c(CN3CCOCC3)nc2c1 > 76.9 µM, O=C(Nc1ccc(S(=O)(=O)N2CCOCC2)cc1)c1ccc(Br)o1 > 76.9 µM, CCOc1ccccc1NC(=O)CSc1nnc(-c2cnccn2)n1CC > 76.9 µM, O=c1c(-c2ccccc2)c(O)nc2ccccn12 > 76.9 µM, Oc1ccc(CNc2ccc(F)cc2)c2cccnc12 > 76.9 µM, c1ccc(Cn2nnc3c(N4CCc5ccccc54)ncnc32)cc1 > 76.9 µM, CCOC(=O)N1CCN(C(=O)COc2ccc3c(c2)C(=O)CC2(CCN(C(C)=O)CC2)O3)CC1 > 76.9 µM, O=C(O)CSc1nnc(Cn2c(=O)sc3ccccc32)n1-c1cccc(Cl)c1 > 76.9 µM, Cc1ccc(C(=O)NC2CCN(C(=O)N3CCOCC3)CC2)cc1 > 76.9 µM, CC1CCCC(NC(=O)c2cn(C)c3ccc(S(=O)(=O)N4CCCC4)cc3c2=O)C1C (stereo not drawn) > 76.9 µM, O=C(NCCOC(=O)C1COc2ccccc2O1)c1cccnc1 (stereo not drawn) > 76.9 µM, Cn1c(SCC(=O)N2c3ccccc3Sc3ccc(Cl)cc32)nnc1-c1ccco1 > 76.9 µM, C=C(C)Cn1c(CCNC(=O)CC)nc2ccccc21 > 76.9 µM, Cc1ccc(-c2c3c(=O)n(C)c(=O)n(C)c3cn2CCCN2CCOCC2)cc1 > 76.9 µM, COC(=O)Nc1nc2c(C)cccc2s1 > 76.9 µM, Cc1c(-c2ccc(F)cc2)nc(N)c(C#N)c1-c1ccco1 > 76.9 µM, COc1ccc2oc(=O)c(C(=O)N3CCc4ccccc43)cc2c1 > 76.9 µM, Cc1ccc(Cl)cc1N(CC(=O)NC1CCCCC1)S(C)(=O)=O > 76.9 µM, COC(=O)CN(c1cccc(OC)c1)S(C)(=O)=O > 76.9 µM, Cc1ccc(S(=O)(=O)c2c(N)n(NC(=O)C3CC3)c3nc4ccccc4nc23)cc1 > 76.9 µM, CCOC(=O)C1CCN(C(=O)Nc2ccc3oc(C)nc3c2)CC1 > 76.9 µM, CCN1C(=O)CC(N2CCC(Nc3ccc(F)cc3)CC2)C1=O (stereo not drawn) > 76.9 µM
